In PubChem BioAssay AID463173 (ICCB-Longwood Screening Facility, Harvard Medical School, 2010) one finds survival data, which are given here for 90 molecules.

In all, about 52,000 compounds went through this assay and about 4,300 (8.3%) were called active. Cut-off read from the data, not from the text of the source: active = survival mostly below about 52% (no sharp cut-off); inactive = mostly above about 56%. Some of the results follow.

In this assay the test system is DeltatarO mutant. Kind of assay: S. aureus survival, RN4220 and DeltatarO strains – OD600, teichoic acid synthesis inhibitors, primary screen (AID 463173). The note with it: S. aureus RN4220 wild type/DeltatarO growth, OD600, 18 h, stronger effect = lower value, screened at 18.75 µg/mL (by protocol).
`O=C1Nc2ccc(S(=O)(=O)Nc3ccccc3O)c3cccc1c23`: the survival is inactive: 62%.

On to `COc1cc(Cl)c(C)cc1NC(=O)CSc1ncc(S(=O)(=O)c2ccc(C(C)(C)C)cc2)c(=O)[nH]1`, for which the survival was inactive: 126%. As for `COc1ccc(NC(=O)CSc2nnc(-c3cccs3)o2)cc1`, the survival is inactive: 54%. As for `CCOc1ccccc1Nc1cc(-c2ccccc2)nc(C)n1`, the survival is inactive: 60%. In the case of `CCCOc1ccc(-c2nn(-c3ccccc3)cc2C2NC(=O)NC(C)=C2C(=O)OC)cc1C` (stereo not given), the survival was inactive: 72%. For `CCC(=O)N1CCc2cc(Br)cc(S(=O)(=O)CCC(=O)NCCc3ccc(Cl)cc3)c21` the value was inactive: 70%; for `Cc1ccccc1CNC(=O)C1CCCN(S(=O)(=O)N(C)c2ccc(F)cc2)C1` (stereo not given), inactive: 84%. Take `CCOc1ccccc1NC(=O)Nc1nnc(N2CCCCCC2)s1`: the survival was inactive: 82%. In the case of `CN(C)c1ccc(-n2nc3ccc4ccccc4c3n2)cc1`, the survival is inactive: 102%. The same measure for `CC(C)CCN(Cc1ccco1)C(=O)c1cc2c(Cl)nc3ccccc3c2s1`: inactive: 68%. As to `Cc1ccc(S(=O)(=O)CC(=O)Nc2sc3c(c2C#N)CCCCC3)cc1`, the survival is inactive: 72%. As for `O=C(O)/C=C/C(=O)Nc1nnc(-c2ccccc2F)s1`, the survival is inactive: 97%.

Regarding `COc1ccc(-c2noc(CSCC(=O)Nc3cccc(C(F)(F)F)c3)n2)cc1OC`, the survival is inactive: 88%.

As for `CCOc1ccc(C2Nc3ccccc3-c3nnc(SCc4ccccc4)nc3O2)cc1OC` (stereo not given), the survival is inactive: 50%.

Turning to `CC(Oc1ccccc1)C(=O)Nc1ccccc1` (stereo not given), the survival is inactive: 96%.

`COc1ccc(Cn2c(C(=O)O)c(CNC3CCCCCC3)c3ccc(OC)cc32)cc1`: the survival is inactive: 115%. On to `C=Cn1cc[n+](CC(=O)c2ccc(C)cc2)c1`, for which the survival is inactive: 102%. Take `O=C(/C=C/c1ccc(F)cc1)Nc1nc2n(n1)C(c1ccc(Cl)cc1)C=C(c1ccccc1)N2` (stereo not given): the survival was active: 33%. Consider `COc1ccc(OC)c(CNC(=O)CCn2c(=O)c3cccn3c3ccc(F)cc32)c1`, for which the survival is inactive: 58%. Take `COC(=O)c1ccccc1NC(=O)Cn1nnc2sc(-c3ccccc3)cc2c1=O`: the survival is inactive: 52%. As for `CCc1ccc(-c2nn(CC(=O)NC3CCCC3)c3c2cnc2ccc(F)cc23)cc1`, the survival is inactive: 105%. As to `COc1ccc(-c2nc(-c3ccccc3)c(-c3ccc(O)cc3)[nH]2)cc1`, the survival is active: 1%. As to `COc1ccccc1CNS(=O)(=O)c1cc2c3c(c1)CCN3C(=O)CC2`, the survival is inactive: 77%. With `CC1=CC(C)(C)Nc2ccc(OC(=O)c3ccco3)cc21`, the survival was inactive: 71%. For `COc1ccccc1C(=O)NCCn1cc(SCc2ccccc2Cl)c2ccccc21` the value was active: 34%. As for `COc1ccccc1C(=O)Nc1nc(-c2ccccc2)ns1`, the survival was active: 45%. As to `Cc1ccc(S(=O)(=O)N2CCCC(NC(=O)N3CCN(c4ccccc4)CC3)C2)cc1` (stereo not given), the survival was inactive: 102%.

For the molecule `COc1ccc(C(=O)n2nc(-c3ccco3)nc2NCc2cccs2)cc1`, the survival was inactive: 63%. For the molecule `C=Cc1ccc(CN2C(=O)N(c3cccc(Cl)c3)S(=O)(=O)c3ccccc32)cc1`, the survival is inactive: 64%. The same measure for `Cc1ccc2c(=O)c(C(=O)c3cccc(Cl)c3)cn(CC(=O)NCc3ccc(F)cc3)c2n1`: inactive: 63%.

On to `Cc1noc(/C=C/c2ccco2)c1S(=O)(=O)N1CCC(C(=O)Nc2ccc(F)c(Cl)c2)CC1`, for which the survival is inactive: 100%. In the case of `COc1ccc(-n2ncc3c(NCCC4=CCCCC4)ncnc32)cc1`, the survival was inactive: 92%. Consider `Cc1ccccc1-c1nc(CS(=O)(=O)CC(=O)NCc2cccc(Cl)c2)c(C)o1`, for which the survival was inactive: 106%. For the molecule `CCC1=Nc2cc(C(=O)NC3CCCC3)ccc2Sc2ccc(Br)cc21`, the survival is active: 44%. As to `Cn1c(-c2ccccc2)c(CCO)c2ccccc21`, the survival was inactive: 105%. Take `Cc1ccc(NC(=O)N2CCc3cc(S(=O)(=O)N4CCC(C)CC4)ccc32)cc1C`: the survival was inactive: 74%. For `CC1Cc2cc(S(=O)(=O)NCc3ccccc3Cl)ccc2N1C(=O)C1CCC1` (stereo not given) the value was inactive: 80%; for `CCN(C(=O)c1cc2c(s1)-c1ccccc1OC2)c1cc(Cl)ccc1OC`, active: 15%; for `CCOC(=O)c1ccc(Nc2ncnc3c2cnn3-c2cccc(Cl)c2)cc1`, inactive: 75%. For the molecule `NC(=O)c1cccc(S(=O)(=O)N2CCCCC2)c1`, the survival is inactive: 94%. For the molecule `Cc1ccccc1NS(=O)(=O)c1nnc(NC(=O)c2ccccc2C)s1`, the survival is inactive: 76%. Consider `O=S(=O)(NCCS(=O)(=O)N1CCN(c2ccccc2F)CC1)c1ccc(Cl)cc1`, for which the survival was inactive: 82%.

`O=C(NCc1cccc(Cl)c1)C(=O)Nc1ccc2nc3n(c(=O)c2c1)CCCCC3`: the survival is inactive: 105%. For `CCCCN1CCCc2cc(CN(CCCN3CCOCC3)C(=O)Nc3ccc(OCC)cc3)ccc21` the value was inactive: 96%; for `O=C(NCc1ccco1)c1ccc(COCC(F)(F)C(F)F)cc1`, inactive: 99%. The same measure for `Cc1cc(C)nc(N2CCC(C(=O)Nc3nnc(C(C)C)s3)CC2)n1`: inactive: 83%. The same measure for `COc1cccc(CN2CCc3nc(SCC(=O)Nc4ccccc4)[nH]c(=O)c3C2)c1`: inactive: 81%; for `COc1ccc(C)cc1Nc1c2c(nc3nc(-c4cccs4)nn13)CCCC2`: inactive: 91%; for `CCN(CC)S(=O)(=O)c1ccc2c(c1)N(CC(=O)N1CCN(c3ccccc3F)CC1)C(=O)CO2`: inactive: 81%. On to `COc1cc(Nc2nc3ccccc3c3nnc(C)n23)cc(OC)c1`, for which the survival was active: 37%. The same measure for `CCc1c(C)nc2nncn2c1Nc1ccc(C(C)C)cc1`: inactive: 69%. Consider `Cc1ccc(NC(=O)/C(C#N)=C/c2cc(C)n(-c3ccc(F)cc3)c2C)cc1C`, for which the survival is inactive: 65%. Turning to `CCc1ccc(NC(=O)Cn2c3ncccc3c(=O)n2-c2ccc(C)c(C)c2)cc1`, the survival is inactive: 69%.

Turning to `O=C(c1ccc2c(c1)N(Cc1ccccc1F)C(=O)c1ccccc1S2=O)N1CCN(c2ccccc2)CC1` (stereo not given), the survival was inactive: 85%. Regarding `Cc1ccc(CNC(=O)c2ccc(-n3cnc4cccnc43)cc2)cc1`, the survival was inactive: 116%. Consider `N#CC1(Nc2ccccc2Cl)C(=O)Nc2ccccc21` (stereo not given), for which the survival is inactive: 69%. The same measure for `COc1ccc(N2CCN(C(=O)CCn3c(=O)c4cccn4c4cccnc43)CC2)cc1`: inactive: 80%; for `CCOC(=O)c1ccc(NC(=O)c2ncn(-c3ccccc3)n2)cc1`: inactive: 99%; for `CCN(CC)c1ccc(C(=O)N2CCC(c3c[nH]c4ccccc34)(c3c[nH]c4ccccc34)CC2)cc1`: inactive: 104%. Turning to `CCn1c(SCC(=O)OC)nnc1-c1ccc(O)cc1`, the survival was inactive: 99%.

As for `O=C(NC1CCN(Cc2ccccc2)CC1)c1ccc(Cn2c(=O)c3ccccc3n(Cc3ccccc3)c2=O)cc1`, the survival is inactive: 100%. As for `Cc1ccc(-c2nc(-c3cc4cccc(OCc5cccc(C)c5)c4oc3=O)no2)cc1`, the survival is inactive: 58%. As to `CNC(=S)N(Cc1ccco1)Cc1cc2cc(C)ccc2n2nnnc12`, the survival is inactive: 71%. In the case of `CC(C)(C)OC(=O)N1CCC(c2c(C(=O)NCCN3CCC(Cc4ccccc4)CC3)cnn2-c2ccccc2)CC1`, the survival was inactive: 80%. In the case of `CCc1ccc(NC(=O)N2CC(C)Oc3ccc(C)cc32)cc1` (stereo not given), the survival is inactive: 96%. In the case of `COc1cc2ccccc2cc1C(=O)Nc1ccc2oc(-c3cccc(Cl)c3Cl)nc2c1`, the survival is inactive: 56%. The same measure for `CN1C(=O)c2ccc(NC3=NS(=O)(=O)c4ccccc43)cc2C1=O`: inactive: 79%. With `COc1ccccc1Nc1nc2ccc(Cl)cc2nc1-n1nc(C)cc1C`, the survival was inactive: 133%.

Take `Cc1ccc2oc3c(c(=O)c2c1)C(c1ccc(F)cc1)N(c1nc(C)c(C)s1)C3=O` (stereo not given): the survival is inactive: 175%. Take `COc1ccc(C2CC(=O)Nc3c2c(=O)[nH]c2nc4ccccc4n32)cc1OC` (stereo not given): the survival was inactive: 133%. In the case of `COc1ccc(NC(=O)c2nc3nc(C)cc(C(F)F)n3n2)c(C)c1`, the survival is inactive: 80%. With `CCOC(=O)c1ccc(NC(=O)CC2C(=O)N(c3ccc(F)cc3)C(=O)N2Cc2ccc3c(c2)OCO3)cc1` (stereo not given), the survival is inactive: 116%. In the case of `CN1C(=O)Cc2cc(S(=O)(=O)CCC(=O)N3CCN(c4ccccc4F)CC3)ccc21`, the survival is inactive: 86%. Consider `Cc1nn(-c2ccc(N3CCCCC3)nn2)c(C)c1CCC(=O)NCc1ccccc1F`, for which the survival is inactive: 74%. Take `Cc1ccccc1C1C=C(c2ccc(Cl)cc2)Nc2nnnn21` (stereo not given): the survival is inactive: 83%.

Turning to `COc1ccc(-n2nc3c(N4CCCC(C(=O)NCCc5ccc(C)cc5)C4)nnc(C)c3c2C)cc1` (stereo not given), the survival was inactive: 98%.

As for `CCOC(=O)c1ccc(NC(=O)Cn2cnc(S(=O)(=O)N3CCCC3)c2)cc1`, the survival is inactive: 94%.

As to `O=c1[nH]nc2c3c(cccc13)-c1ccccc1-2`, the survival was inactive: 99%.

With `CCCn1c(NCc2ccccc2C)nc2ccccc21`, the survival is inactive: 108%. For `O=C(CCn1[nH]c(=O)c2ccccc2c1=O)OC1CCCCC1` the value was inactive: 64%; for `CS(=O)(=O)N(CC(=O)N1CCCC1)c1ccc2c(c1)OCO2`, inactive: 88%; for `COc1ccc(-n2cc(-c3ccccc3)nc2SCC(=O)Nc2ccccc2)cc1Cl`, inactive: 80%. Regarding `CCc1ccc(S(=O)(=O)c2nnn3c2nc(N2CCCC2)c2sccc23)cc1`, the survival is inactive: 105%. The same measure for `COc1ccc(CNC(=O)c2ccc3c(c2)nc2n3CCCCC2)c(OC)c1`: inactive: 71%. The same measure for `CCOC(=O)c1cccc(NS(=O)(=O)c2cn(C)c(C)n2)c1`: inactive: 98%; for `COc1ccc(/C=C/c2noc(-c3ccccc3O)n2)cc1OC`: inactive: 130%. In the case of `Cc1ccc(Cn2ccn(Cc3ccccc3C)c(=O)c2=O)cc1`, the survival was inactive: 80%. On to `COC(=O)c1ccccc1NC(=O)Cn1c(=O)n(-c2ccc(Cl)cc2)c(=O)c2c(C)c(C)sc21`, for which the survival is inactive: 86%. Regarding `CCOc1ccc(OCC)c(NC(=O)CCc2c(C)nc3c(c2C)c(=O)n(C)c(=O)n3C)c1`, the survival is inactive: 90%. Consider `O=C(c1ccc2c(c1)N(Cc1ccccc1)C(=O)c1ccccc1S2(=O)=O)N1CCN(c2ccccn2)CC1`, for which the survival is inactive: 67%.
